This is one part of the list. At the low end of the ranking the order means little.
What follows are sequences tested against MAX:MAX (p21) (UniProt P61244-2) (assay: protein-binding microarray (anti-MAX antibody)). Conditions: PBM: 15 mM Tris-HCl pH 7.5, 100 mM KCl, 0.075% NP40, 7.5 mM beta-mercaptoethanol, 375 ng/ul BSA, 8 ng/ul poly(dA-dT):(dA-dT), 550 ng complex, 60 min, room …; high values mean tight binding; double strand, one strand shown; sequences stand for … in CCGGC…TTAATAGCTAAGATTACTATATCGACG.
With TGATTGGTGGTA the binding signal (log2 normalized fluorescence) was -0.596.
Sequence TGATACGGAGTA has a binding signal (log2 normalized fluorescence) of -0.967.
TGAGCTTCGGTA gave a binding signal (log2 normalized fluorescence) of -1.1.
With TGATGGCATGTA the binding signal (log2 normalized fluorescence) was 1.75.
Work on TGAACTTTTGTA yielded a binding signal (log2 normalized fluorescence) of -1.09.
TGAGATCTTGTA showed a binding signal (log2 normalized fluorescence) of -1.17.
Work on TCAGAGACGTTG yielded a binding signal (log2 normalized fluorescence) of -0.698.
For TGACTCGAGCTA, the binding signal (log2 normalized fluorescence) was -0.172.
TGACTATTTGTA was tested, and the binding signal (log2 normalized fluorescence) was -1.01.
TGATTTAGCGTA showed a binding signal (log2 normalized fluorescence) of -1.11.
With TGAAGCGTAGTA the binding signal (log2 normalized fluorescence) was -0.753.
In the case of TCACACCTCGTA, the binding signal (log2 normalized fluorescence) is reported as 2.28.
Work on TTAGACGTGGTA yielded a binding signal (log2 normalized fluorescence) of 1.04.
TGAAACAGCGTA gave a binding signal (log2 normalized fluorescence) of -0.261.
TGAAGGATCGTA showed a binding signal (log2 normalized fluorescence) of -0.663.
With TGATTCGACGTA the binding signal (log2 normalized fluorescence) was -0.8.
TGAGGTGGCGTA was tested, and the binding signal (log2 normalized fluorescence) was -0.248.
TGAGCACCCGTA showed a binding signal (log2 normalized fluorescence) of 0.168.
Work on TGACTGAGAGTA yielded a binding signal (log2 normalized fluorescence) of -0.673.
Sequence TGAATGGCCGTA has a binding signal (log2 normalized fluorescence) of 0.498.
TGAGCACACGTA gave a binding signal (log2 normalized fluorescence) of 1.46.
Sequence TGATCACGCGTA has a binding signal (log2 normalized fluorescence) of 2.73.
TGACACGTGCGC showed a binding signal (log2 normalized fluorescence) of 3.16.
In the case of TGAATATTGGTA, the binding signal (log2 normalized fluorescence) is reported as -0.963.
In the case of TGACCTGGAGTA, the binding signal (log2 normalized fluorescence) is reported as -0.329.
TGAAAATCGGTA showed a binding signal (log2 normalized fluorescence) of -1.16.
For TGAGCCACGGTA, the binding signal (log2 normalized fluorescence) was 0.429.
In the case of TGATAGGTGGGA, the binding signal (log2 normalized fluorescence) is reported as -0.519.
TGAGAGCCTGTA was tested, and the binding signal (log2 normalized fluorescence) was -0.287.
Sequence TGATCCTGCGTA has a binding signal (log2 normalized fluorescence) of -0.57.
With TGAAGGAGAGTA the binding signal (log2 normalized fluorescence) was -0.816.
For TGAGGGAAGGTA, the binding signal (log2 normalized fluorescence) was -0.096.
TGACCAGAAGTA showed a binding signal (log2 normalized fluorescence) of -0.468.
TGACACTAAGTA was tested, and the binding signal (log2 normalized fluorescence) was -0.152.
For TGATTGTAGGTA, the binding signal (log2 normalized fluorescence) was -0.799.
Sequence TGAACGAATGTA has a binding signal (log2 normalized fluorescence) of -0.153.
For CGACACCTGTTA, the binding signal (log2 normalized fluorescence) was 2.63.
Work on TGAGAGAGCGTA yielded a binding signal (log2 normalized fluorescence) of -0.75.
Work on TGATGACAGGTA yielded a binding signal (log2 normalized fluorescence) of 0.172.
Sequence TGGAGCGTGGTA has a binding signal (log2 normalized fluorescence) of 2.72.
Sequence TGATTACCAGTA has a binding signal (log2 normalized fluorescence) of -0.743.
For TGAGCGGGGGTA, the binding signal (log2 normalized fluorescence) was 1.52.
TTTCCCGTGGTA showed a binding signal (log2 normalized fluorescence) of 1.92.
In the case of TGACGAGAGGTA, the binding signal (log2 normalized fluorescence) is reported as -0.158.
TGAACGAAAGTA was tested, and the binding signal (log2 normalized fluorescence) was -0.654.
With TGACACGTGCTC the binding signal (log2 normalized fluorescence) was 3.24.
TGATCGGGCGTA showed a binding signal (log2 normalized fluorescence) of -1.
For TGATCTGTAGTA, the binding signal (log2 normalized fluorescence) was -0.886.
With TTACACGTGGAA the binding signal (log2 normalized fluorescence) was 3.37.
TGAGCGGTAGTA was tested, and the binding signal (log2 normalized fluorescence) was -0.714.
Work on TGACATCCCGTA yielded a binding signal (log2 normalized fluorescence) of 0.192.
TGACCTTCCGTA showed a binding signal (log2 normalized fluorescence) of -0.7.
Sequence TGAGACCTGGTA has a binding signal (log2 normalized fluorescence) of -0.5.
ATACACTTGGTA showed a binding signal (log2 normalized fluorescence) of 1.54.
TGAATCACGGTA was tested, and the binding signal (log2 normalized fluorescence) was 0.64.
For TACGACGTGGTA, the binding signal (log2 normalized fluorescence) was 2.57.
TGACCAATCGTA showed a binding signal (log2 normalized fluorescence) of -0.754.
TGACACGACTTA showed a binding signal (log2 normalized fluorescence) of 1.22.
For TGACCATTGGTA, the binding signal (log2 normalized fluorescence) was -0.0632.
In the case of TGATTATACGTA, the binding signal (log2 normalized fluorescence) is reported as -0.927.
TGACCGATCGTA gave a binding signal (log2 normalized fluorescence) of -0.59.
TGGCATGTGGTA was tested, and the binding signal (log2 normalized fluorescence) was 3.04.
Sequence TGGCACGTGGTA has a binding signal (log2 normalized fluorescence) of 3.26.
TGAAAAGGCGTA was tested, and the binding signal (log2 normalized fluorescence) was -0.503.
Sequence TGAGTTACGGTA has a binding signal (log2 normalized fluorescence) of -0.516.
Sequence TGATTTCGTGTA has a binding signal (log2 normalized fluorescence) of -0.361.
With TGAAGACAGGTA the binding signal (log2 normalized fluorescence) was -0.186.
TGAATCTCAGTA was tested, and the binding signal (log2 normalized fluorescence) was -1.13.
Work on TGCCATGTGGTT yielded a binding signal (log2 normalized fluorescence) of 3.15.
For CGCGACGTGGTA, the binding signal (log2 normalized fluorescence) was 2.79.
Sequence TGACTCAGAGTA has a binding signal (log2 normalized fluorescence) of -0.668.
TGGCACGTGCTA gave a binding signal (log2 normalized fluorescence) of 3.25.
TGACCTCTGGTA was tested, and the binding signal (log2 normalized fluorescence) was -0.818.
TGATGCTGCGTA showed a binding signal (log2 normalized fluorescence) of 0.117.
Work on TGACTGAAAGTA yielded a binding signal (log2 normalized fluorescence) of -0.626.
TGATTTATAGTA showed a binding signal (log2 normalized fluorescence) of -1.19.
TGACGTGCCGTA showed a binding signal (log2 normalized fluorescence) of 1.03.
TGAATAAACGTA showed a binding signal (log2 normalized fluorescence) of -0.637.
For TGACAACCGGTA, the binding signal (log2 normalized fluorescence) was -0.183.
In the case of TGAAGTGTTGTA, the binding signal (log2 normalized fluorescence) is reported as -0.217.
Sequence ACTTATAGATTT has a binding signal (log2 normalized fluorescence) of -0.453.
TGAATCCCGGTA gave a binding signal (log2 normalized fluorescence) of -1.15.
TGAGGTCTCGTA showed a binding signal (log2 normalized fluorescence) of -0.936.
Work on TGATAGACAGTA yielded a binding signal (log2 normalized fluorescence) of -0.945.
With TGAAGACTTGTA the binding signal (log2 normalized fluorescence) was -0.873.
TGACAGAGTGTA gave a binding signal (log2 normalized fluorescence) of -0.154.
Sequence TGAGTCCAAGTA has a binding signal (log2 normalized fluorescence) of -1.14.
TGATTCCAGGTA gave a binding signal (log2 normalized fluorescence) of -0.706.
TGAATTTCTGTA was tested, and the binding signal (log2 normalized fluorescence) was -1.02.
TGAGCGATAGTA gave a binding signal (log2 normalized fluorescence) of -1.
Sequence TGATGAGTGGTA has a binding signal (log2 normalized fluorescence) of -0.0585.
In the case of TGACGCGTGGTA, the binding signal (log2 normalized fluorescence) is reported as 3.
Sequence TGATGTCTCGTA has a binding signal (log2 normalized fluorescence) of -0.00586.
Sequence TGATCATGCGTA has a binding signal (log2 normalized fluorescence) of 2.71.
Sequence TGAAAAGTGGTA has a binding signal (log2 normalized fluorescence) of -0.645.
For TGACAGTTTGTA, the binding signal (log2 normalized fluorescence) was -0.554.
In the case of TGACCACAAGTA, the binding signal (log2 normalized fluorescence) is reported as 1.12.
With TGAAGCAGGGTA the binding signal (log2 normalized fluorescence) was -0.0603.
TGAGCTAAAGTA showed a binding signal (log2 normalized fluorescence) of -1.02.
With TGAATGTAGGTA the binding signal (log2 normalized fluorescence) was 0.306.
TGATTGGCTGTA showed a binding signal (log2 normalized fluorescence) of -0.902.
TGACACGTATGA was tested, and the binding signal (log2 normalized fluorescence) was 1.54.
TGTCACGTGGAA gave a binding signal (log2 normalized fluorescence) of 3.19.
TGACTTAAAGTA gave a binding signal (log2 normalized fluorescence) of -0.586.
With TGAGACGATGTA the binding signal (log2 normalized fluorescence) was -0.696.
With TGACACGAGGCG the binding signal (log2 normalized fluorescence) was 3.03.
TGACCCCGAGTA showed a binding signal (log2 normalized fluorescence) of -0.23.
Work on TGAAAGTGCGTA yielded a binding signal (log2 normalized fluorescence) of 0.165.
For TGAATAGGCGTA, the binding signal (log2 normalized fluorescence) was -1.15.
For TGATTCTCCGTA, the binding signal (log2 normalized fluorescence) was -1.09.
TGACACGTGTAA showed a binding signal (log2 normalized fluorescence) of 3.24.
TGACTTGGGGTA was tested, and the binding signal (log2 normalized fluorescence) was -0.117.
With TGACACGTGATC the binding signal (log2 normalized fluorescence) was 3.15.
TGAGTGCCCGTA was tested, and the binding signal (log2 normalized fluorescence) was 0.375.
TGAGTCAGGGTA showed a binding signal (log2 normalized fluorescence) of -0.467.
In the case of TGAAGTAGGGTA, the binding signal (log2 normalized fluorescence) is reported as -0.682.
Work on TGAATGGCGGTA yielded a binding signal (log2 normalized fluorescence) of 0.7.
Sequence TGACCTTCAGTA has a binding signal (log2 normalized fluorescence) of -0.568.
In the case of TGACCGAGCGTA, the binding signal (log2 normalized fluorescence) is reported as -0.45.
With TGACGCGTGCTA the binding signal (log2 normalized fluorescence) was 3.17.
With TGAACATGAGTA the binding signal (log2 normalized fluorescence) was 1.84.
With TGAAACACGGTA the binding signal (log2 normalized fluorescence) was 0.808.
In the case of TGATCTACGGTA, the binding signal (log2 normalized fluorescence) is reported as -0.711.
TGACCGGTCGTA showed a binding signal (log2 normalized fluorescence) of -0.522.
TGACAAGTTGTA gave a binding signal (log2 normalized fluorescence) of -0.304.
With TGACGGGTGGTA the binding signal (log2 normalized fluorescence) was 0.664.
For TGATACTAAGTA, the binding signal (log2 normalized fluorescence) was -0.495.
TGAGGAGCAGTA gave a binding signal (log2 normalized fluorescence) of -0.75.
With TGAAGGCGTGTA the binding signal (log2 normalized fluorescence) was 1.87.
TGATTTGGCGTA showed a binding signal (log2 normalized fluorescence) of -1.27.
TATTACGTGGTA gave a binding signal (log2 normalized fluorescence) of 1.27.
With TGAGGGTTAGTA the binding signal (log2 normalized fluorescence) was -0.808.
In the case of AGACGGGAGGTT, the binding signal (log2 normalized fluorescence) is reported as 0.68.
For TGTAACGTGGTA, the binding signal (log2 normalized fluorescence) was 2.88.
Sequence TGAGTTAATGTA has a binding signal (log2 normalized fluorescence) of -1.14.
Sequence TGATGCAGAGTA has a binding signal (log2 normalized fluorescence) of -0.167.
With TGAGCCGTGGTA the binding signal (log2 normalized fluorescence) was 0.289.
